From the supplement of paper PMC11880418
Structures can show the parent of a compound that is named as a salt. The list shows a part of the results. The data scatter; read single values as rough.

Assays:
Assay in all cases: ALDHbr (CSC) cell proportion score relative to DMSO vehicle (ratio to DMSO); breast (SUM159) / gastric (MKN45) / pancreatic (PANC1) / colon cancer lines; ALDHbr cells have high ALDH activity and are rich in cancer stem cells (CSC); higher = more CSC (ALDHbr) cells remaining
Conditions in all cases: 10 µM; 72 h
MKN45 = test system: MKN45
PANC1 = test system: PANC1
SUM159 = test system: SUM159
T84 = test system: T84
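Note: High-content imaging of ALDEFLUOR-stained cells with Hoechst-labelled nuclei in 384-well plates, triplicate wells, scored as Z-score against 0.1% DMSO vehicle, negative meaning fewer ALDHbr cells.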

| Compound | ALDHbr (MKN45) | ALDHbr (PANC1) | ALDHbr (SUM159) | ALDHbr (T84) |
| --- | --- | --- | --- | --- |
| CC(c1cc2ccccc2s1)N(O)C(N)=O (stereo unspecified) [Zileuton] | 0.827 | 0.986 | 0.972 | 1.04 |
| N=C(N)NCC1COC2(CCCCC2)O1 (stereo unspecified) [Guanadrel sulfate] | 0.972 | 0.925 | 1.11 | 1.01 |
| NS(=O)(=O)Cc1noc2ccccc12 [Zonisamide] | 1.07 | 0.875 | 0.935 | 1.01 |
| CC[C@H]1OC(=O)[C@H](C)[C@@H](O[C@H]2C[C@@](C)(OC)[C@@H](O)[C@H](C)O2)[C@H](C)[C@@H](O[C@@H]2O[C@H](C)C[C@H](N(C)C)[C@H]2O)[C@](C)(O)C[C@@H](C)C(=O)[C@H](C)[C@@H](O)[C@]1(C)O [Erythromycin] | 1.14 | 1.48 | 1.05 | 1.06 |
| Nc1ccccc1S(N)(=O)=O [2-Aminobenzenesulfonamide] | 1.01 | 0.921 | 1.1 | 0.975 |
| CN[C@@H]1[C@H](O[C@H]2[C@H](O[C@H]3[C@H](O)[C@@H](O)[C@H](N=C(N)N)[C@@H](O)[C@@H]3N=C(N)N)O[C@@H](C)[C@]2(O)C=O)O[C@@H](CO)[C@H](O)[C@H]1O [Streptomycin sulfate] | 1.02 | 0.81 | 1.37 | 1.07 |
| CCCc1ncc(C[n+]2ccccc2C)c(N)n1 [Amprolium hydrochloride] | 0.894 | 1.06 | 0.961 | 0.848 |
| Cc1ccsc1/C=C/C1=NCCCN1C [Morantel tartrate] | 1.15 | 0.727 | 1.07 | 0.97 |
| c1ccc2c(c1)CCCC2C1=NCCN1 (stereo unspecified) [Tetrahydrozoline hydrochloride] | 1.02 | 0.889 | 0.846 | 0.989 |
| O=C(NCC(O)CO)c1c(I)c(C(=O)NCC(O)CO)c(I)c(N(CCO)C(=O)CO)c1I (stereo unspecified) [Ioversol] | 1 | 0.857 | 1.15 | 1.01 |
| CCCN(CCC)S(=O)(=O)c1ccc(C(=O)O)cc1 [Probenecid] | 1.1 | 0.908 | 0.855 | 0.998 |
| CN1CCC(=C2c3ccccc3CC(=O)c3sccc32)CC1 [Ketotifen fumarate] | 1.3 | 1.13 | 0.777 | 0.886 |
| O=C(O)Cc1cc(I)c(Oc2ccc(O)c(I)c2)c(I)c1 [Tiratricol, 3,3',5-triiodothyroacetic acid] | 1.05 | 1.02 | 1.02 | 0.853 |
| Cc1ccc(C(=O)c2cc(O)c(O)c([N+](=O)[O-])c2)cc1 [Tolcapone] | 0.819 | 0.968 | 0.987 | 0.877 |
| Cc1ccnc2c1NC(=O)c1cccnc1N2C1CC1 [Nevirapine] | 1.19 | 0.99 | 0.868 | 0.921 |
| CN1CCCC(n2nc(Cc3ccc(Cl)cc3)c3ccccc3c2=O)CC1 (stereo unspecified) [Azelastine hydrochloride] | 0.937 | 0.73 | 0.588 | 0.805 |
| CCCCCCC[N+](CC)(CC)CCCCc1ccc(Cl)cc1 [Clofilium tosylate] | 0.449 | 0.794 | 0.706 | 0.44 |
| CCOC(=O)C1=C[C@]2(CC)CCCN3CCc4c(n1c1ccccc41)[C@@H]32 [Vinpocetine] | 1.15 | 1.02 | 0.663 | 0.898 |
| O=c1n(CCCN2CCN(c3cccc(Cl)c3)CC2)nc2ccccn12 [Trazodone hydrochloride] | 0.865 | 0.514 | 0.962 | 0.858 |
| CO[C@H]1/C=C/O[C@@]2(C)Oc3c(C)c(O)c4c(O)c(c5c(nc6cc(C)ccn65)c4c3C2=O)NC(=O)/C(C)=C\C=C\[C@H](C)[C@H](O)[C@@H](C)[C@@H](O)[C@@H](C)[C@H](OC(C)=O)[C@@H]1C [Rifaximin] | 1.04 | 0.969 | 0.793 | 0.875 |

| Compound | ALDHbr (MKN45) | ALDHbr (PANC1) | ALDHbr (SUM159) | ALDHbr (T84) |
| --- | --- | --- | --- | --- |
| O=C(OCC(O)CO)c1ccccc1Nc1ccnc2cc(Cl)ccc12 (stereo unspecified) [Glafenine hydrochloride] | 1.18 | 0.754 | 1.41 | 0.793 |
| O=C(c1ccccc1)c1ccc2n1CCC2C(=O)O (stereo unspecified) [Ketorolac tromethamine] | 0.947 | 1.07 | 0.958 | 0.952 |
| CN(C)CCC(c1ccccc1)c1ccccn1 (stereo unspecified) [Pheniramine maleate] | 1.02 | 0.954 | 1.05 | 0.817 |
| CC(C)OC(=O)C(C)(C)Oc1ccc(C(=O)c2ccc(Cl)cc2)cc1 [Fenofibrate] | 0.863 | 0.819 | 0.944 | 1.02 |
| CC[C@H](c1ccc(O)cc1)[C@@H](CC)c1ccc(O)cc1 [Hexestrol] | 0.93 | 0.872 | 0.773 | 0.898 |
| Nc1nc(O)c2ncn(CCC(CO)CO)c2n1 [Penciclovir] | 1.14 | 1 | 1.36 | 1.04 |
| NCCCC[C@H](N[C@@H](CCc1ccccc1)C(=O)O)C(=O)N1CCC[C@H]1C(=O)O [Lisinopril] | 1 | 0.83 | 1.02 | 1.08 |
| CC(C)(C(=O)c1cccnc1)c1cccnc1 [Metyrapone] | 0.901 | 0.93 | 1.18 | 0.923 |
| NNC(=O)c1ccncc1 [Isoniazid] | 0.965 | 0.753 | 1.13 | 0.927 |
| CC(C)NC[C@@H](O)COc1cccc2ccccc12 [(R)-Propranolol hydrochloride] | 1.4 | 0.876 | 1.07 | 0.889 |
| OC(CCN1CCCCC1)(c1ccccc1)C1CC2C=CC1C2 (stereo unspecified) [Biperiden hydrochloride] | 1.09 | 1.03 | 0.913 | 0.947 |
| COC(=O)C1=C(C)NC(C)=C(C(=O)OC)C1c1ccccc1[N+](=O)[O-] [Nifedipine] | 0.855 | 1.07 | 0.917 | 0.871 |
| C#Cc1cccc(Nc2ncnc3cc(OCCOC)c(OCCOC)cc23)c1 [Erlotinib] | 1.09 | 0.689 | 0.227 | 0.72 |
| CCCCNC(=O)NS(=O)(=O)c1ccc(C)cc1 [Tolbutamide] | 1.07 | 0.881 | 0.918 | 0.849 |
| COC(=O)CCc1ccc(OCC(O)CNC(C)C)cc1 (stereo unspecified) [Esmolol hydrochloride] | 0.966 | 0.846 | 1.24 | 0.875 |
| Cc1ccccc1OCC(O)CO (stereo unspecified) [Mephenesin] | 1.09 | 0.828 | 0.77 | 1.05 |
| Cn1c(=O)c2c(ncn2CC(O)CO)n(C)c1=O (stereo unspecified) [Diprophylline] | 0.893 | 0.905 | 1.22 | 0.926 |
| COc1ccc2cc([C@H](C)C(=O)O)ccc2c1 [Naproxen] | 1.03 | 0.946 | 1.01 | 1.08 |
| CC(C)(C)NCC(O)c1cc(O)cc(O)c1 (stereo unspecified) [Terbutaline hemisulfate] | 1.08 | 0.741 | 2.79 | 0.917 |
